# Source: the supplement of paper PMC8728848
# The list shows a part of the results.
# B1: MpL2 (Macrolepiota procera) (protein)
# chain: MSTQVSSGQTYKITNVKAGTVIDLSGEDNKSIIGYPYHSGKNQQWTFNWTGKAWTLRSASSGSYLGIEGTPADGTRLVAVNDPFEWHIWRDEANENAFRIFVPFTNYNLRLSGYGDTTPGTPVQLWWTWEGLHQTWTIDRP
# Assays:
# Experiment in all cases: glycan array binding signal (z-score within array); higher = stronger binding
# Conditions in all cases: glycan notation: IUPAC condensed, linker removed; mutation: D109R
# [1] = target: Gal3S(b1-3)[Fuc(a1-4)]GlcNAc
# How it was run: (§1)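 The binding signal is a Z-score computed within each array and averaged over linkers. Arrays of the same protein sequence at different concentrations or buffers were also averaged together. Data originate from 3228 arrays in the Consortium for Functional Glycomics database, kept only where the protein sequence was available.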
# Gal3S(b1-4)Glc = target: Gal3S(b1-4)Glc
# How it was run: as §1
# Gal3S(b1-4)Glc6S = target: Gal3S(b1-4)Glc6S
# How it was run: as §1
# Gal3S(b1-4)GlcNAc = target: Gal3S(b1-4)GlcNAc
# How it was run: as §1
# [2] = target: Gal3S(b1-4)[Fuc(a1-3)]Glc6S
# How it was run: as §1
# [3] = target: Gal3S(b1-4)[Fuc(a1-3)]GlcNAc
# How it was run: as §1
# [4] = target: Gal3S(b1-4)[Fuc(a1-3)]GlcNAc6S
# How it was run: as §1
# Gal3S4S(b1-4)GlcNAc = target: Gal3S4S(b1-4)GlcNAc
# How it was run: as §1
# Gal3S6S(b1-4)GlcNAc = target: Gal3S6S(b1-4)GlcNAc
# How it was run: as §1
# Gal3S6S(b1-4)GlcNAc6S = target: Gal3S6S(b1-4)GlcNAc6S
# How it was run: as §1
# Gal4S(b1-4)GlcNAc = target: Gal4S(b1-4)GlcNAc
# How it was run: as §1
# Gal4S6S(b1-4)GlcNAc = target: Gal4S6S(b1-4)GlcNAc
# How it was run: as §1
# Gal6P(b1-4)GlcNAc = target: Gal6P(b1-4)GlcNAc
# How it was run: as §1
# Gal6S(b1-3)GlcNAc = target: Gal6S(b1-3)GlcNAc
# How it was run: as §1
# Gal6S(b1-3)GlcNAc6S = target: Gal6S(b1-3)GlcNAc6S
# How it was run: as §1
# Gal6S(b1-4)Glc = target: Gal6S(b1-4)Glc
# How it was run: as §1
# Gal6S(b1-4)Glc6S = target: Gal6S(b1-4)Glc6S
# How it was run: as §1
# Gal6S(b1-4)GlcNAc = target: Gal6S(b1-4)GlcNAc
# How it was run: as §1
# Gal6S(b1-4)GlcNAc6S = target: Gal6S(b1-4)GlcNAc6S
# How it was run: as §1
# GalNAc(a1-3)Gal = target: GalNAc(a1-3)Gal
# How it was run: as §1
# GalNAc(a1-3)GalNAc = target: GalNAc(a1-3)GalNAc
# How it was run: as §1
# [5] = target: GalNAc(a1-3)GalNAc(b1-3)Gal(a1-4)Gal(b1-4)Glc
# How it was run: as §1
# [6] = target: GalNAc(a1-3)GalNAc(b1-3)Gal(a1-4)Gal(b1-4)GlcNAc
# How it was run: as §1
# GalNAc(b1-3)Gal = target: GalNAc(b1-3)Gal
# How it was run: as §1
# [7] = target: GalNAc(b1-3)Gal(a1-4)Gal(b1-4)GlcNAc
# How it was run: as §1
# [8] = target: GalNAc(b1-3)Gal(a1-4)Gal(b1-4)GlcNAc(b1-3)Gal(b1-4)Glc
# How it was run: as §1
# [9] = target: GalNAc(b1-3)Gal(a1-6)Gal(b1-4)Glc
# How it was run: as §1
# GalNAc(b1-3)GalNAc = target: GalNAc(b1-3)GalNAc
# How it was run: as §1
# GalNAc(b1-3)GlcNAc = target: GalNAc(b1-3)GlcNAc
# How it was run: as §1
# GalNAc(b1-4)Gal(b1-4)Glc = target: GalNAc(b1-4)Gal(b1-4)Glc
# How it was run: as §1
# GalNAc(b1-4)GlcNAc = target: GalNAc(b1-4)GlcNAc
# How it was run: as §1
# [10] = target: GalNAc(b1-4)GlcNAc(b1-2)Man
# How it was run: as §1
# [11] = target: GalNAc(b1-4)GlcNAc(b1-2)Man(a1-3)[GalNAc(b1-4)GlcNAc(b1-2)Man(a1-6)]Man(b1-4)GlcNAc(b1-4)GlcNAc
# How it was run: as §1
# [12] = target: GalNAc(b1-4)GlcNAc(b1-3)GalNAc(b1-4)GlcNAc
# How it was run: as §1
# GalNAc(b1-4)GlcNAc6S = target: GalNAc(b1-4)GlcNAc6S
# How it was run: as §1
# GalNAc(b1-6)GalNAc = target: GalNAc(b1-6)GalNAc
# How it was run: as §1
# GalNAc3S(b1-4)GlcNAc = target: GalNAc3S(b1-4)GlcNAc
# How it was run: as §1
# GalNAc3S(b1-4)GlcNAc3S = target: GalNAc3S(b1-4)GlcNAc3S
# How it was run: as §1
# [13] = target: GalNAc3S(b1-4)[Fuc(a1-3)]GlcNAc
# How it was run: as §1
# GalNAc4S6S(b1-4)GlcNAc = target: GalNAc4S6S(b1-4)GlcNAc
# How it was run: as §1
# GalNAc6S(b1-4)GlcNAc = target: GalNAc6S(b1-4)GlcNAc
# How it was run: as §1
# Glc(a1-4)Glc = target: Glc(a1-4)Glc
# How it was run: as §1
# [14] = target: Glc(a1-4)Glc(a1-4)Glc(a1-4)Glc
# How it was run: as §1
# Glc(a1-6)Glc(a1-6)Glc = target: Glc(a1-6)Glc(a1-6)Glc
# How it was run: as §1
# [15] = target: Glc(a1-6)Glc(a1-6)Glc(a1-6)Glc
# How it was run: as §1
binder,measurement,setting,value
B1,glycan array binding signal (z-score),[1],-0.258
same,glycan array binding signal (z-score),Gal3S(b1-4)Glc,-0.262
same,glycan array binding signal (z-score),Gal3S(b1-4)Glc6S,-0.274
same,glycan array binding signal (z-score),Gal3S(b1-4)GlcNAc,-0.277
same,glycan array binding signal (z-score),[2],-0.212
same,glycan array binding signal (z-score),[3],-0.253
same,glycan array binding signal (z-score),[4],-0.256
same,glycan array binding signal (z-score),Gal3S4S(b1-4)GlcNAc,-0.282
same,glycan array binding signal (z-score),Gal3S6S(b1-4)GlcNAc,-0.247
same,glycan array binding signal (z-score),Gal3S6S(b1-4)GlcNAc6S,-0.257
same,glycan array binding signal (z-score),Gal4S(b1-4)GlcNAc,-0.287
same,glycan array binding signal (z-score),Gal4S6S(b1-4)GlcNAc,-0.262
same,glycan array binding signal (z-score),Gal6P(b1-4)GlcNAc,-0.218
same,glycan array binding signal (z-score),Gal6S(b1-3)GlcNAc,-0.275
same,glycan array binding signal (z-score),Gal6S(b1-3)GlcNAc6S,-0.293
same,glycan array binding signal (z-score),Gal6S(b1-4)Glc,-0.27
same,glycan array binding signal (z-score),Gal6S(b1-4)Glc6S,-0.26
same,glycan array binding signal (z-score),Gal6S(b1-4)GlcNAc,-0.269
same,glycan array binding signal (z-score),Gal6S(b1-4)GlcNAc6S,-0.289
same,glycan array binding signal (z-score),GalNAc(a1-3)Gal,-0.262
same,glycan array binding signal (z-score),GalNAc(a1-3)GalNAc,-0.244
same,glycan array binding signal (z-score),[5],-0.254
same,glycan array binding signal (z-score),[6],-0.264
same,glycan array binding signal (z-score),GalNAc(b1-3)Gal,-0.247
same,glycan array binding signal (z-score),[7],-0.19
same,glycan array binding signal (z-score),[8],-0.2
same,glycan array binding signal (z-score),[9],-0.257
same,glycan array binding signal (z-score),GalNAc(b1-3)GalNAc,-0.254
same,glycan array binding signal (z-score),GalNAc(b1-3)GlcNAc,-0.068
same,glycan array binding signal (z-score),GalNAc(b1-4)Gal(b1-4)Glc,-0.254
same,glycan array binding signal (z-score),GalNAc(b1-4)GlcNAc,0.327
same,glycan array binding signal (z-score),[10],0.399
same,glycan array binding signal (z-score),[11],-0.2
same,glycan array binding signal (z-score),[12],3.89
same,glycan array binding signal (z-score),GalNAc(b1-4)GlcNAc6S,-0.23
same,glycan array binding signal (z-score),GalNAc(b1-6)GalNAc,-0.261
same,glycan array binding signal (z-score),GalNAc3S(b1-4)GlcNAc,-0.269
same,glycan array binding signal (z-score),GalNAc3S(b1-4)GlcNAc3S,-0.255
same,glycan array binding signal (z-score),[13],-0.254
same,glycan array binding signal (z-score),GalNAc4S6S(b1-4)GlcNAc,-0.266
same,glycan array binding signal (z-score),GalNAc6S(b1-4)GlcNAc,-0.262
same,glycan array binding signal (z-score),Glc(a1-4)Glc,-0.254
same,glycan array binding signal (z-score),[14],-0.296
same,glycan array binding signal (z-score),Glc(a1-6)Glc(a1-6)Glc,-0.255
same,glycan array binding signal (z-score),[15],-0.259
